Patent US9573895B2, “Tetracycline compounds” (Tetraphase Pharmaceuticals, Inc., priority 2012, dated 2017)

Test system: K. pneumoniae UNT023-1(KPC producing strain)
Assay: Mouse Pneumonia Study
Conditions: female CD-1 mice; for Log10 change from 2 hr Control / Log10 change from 24 hr Control: BID @ 2 and 12 hrs; for Mean log10 CFU/pair Lung: BID @ 2 and 12 hrs post-infection, 24 hour lung CFU

| Structure (SMILES) | Log10 change from 2 hr Control (80 mg/kg/dose IV) | Log10 change from 24 hr Control (80 mg/kg/dose IV) | Mean log10 CFU/pair Lung (80 mg/kg/dose IV) | Log10 change from 2 hr Control (5 mg/kg/dose IV) | Log10 change from 24 hr Control (5 mg/kg/dose IV) | Mean log10 CFU/pair Lung (5 mg/kg/dose IV) | Log10 change from 2 hr Control (15 mg/kg/dose IV) | Log10 change from 24 hr Control (15 mg/kg/dose IV) | Mean log10 CFU/pair Lung (15 mg/kg/dose IV) | Log10 change from 2 hr Control (40 mg/kg/dose IV) | Log10 change from 24 hr Control (40 mg/kg/dose IV) | Mean log10 CFU/pair Lung (40 mg/kg/dose IV) |
| --- | --- | --- | --- | --- | --- | --- | --- | --- | --- | --- | --- | --- |
| CN(C)c1cc(NC(=O)CNC(C)(C)C)c(O)c2c1C[C@H]1C[C@H]3[C@H](N(C)C)C(O)=C(C(N)=O)C(=O)[C@@]3(O)C(O)=C1C2=O [Tigecycline, tigecycline] | 0.73 Log10 | −1.23 Log10 | 8.27 log10 CFU/pair Lung | – | – | – | – | – | – | – | – | – |
| CCN(C)[C@@H]1C(O)=C(C(N)=O)C(=O)[C@@]2(O)C(O)=C3C(=O)c4c(O)cc5c(c4C[C@H]3C[C@@H]12)N(C)CC1CCN(C)C51 (single isomer, unassigned) [Compound S5-10-3-B] | – | – | – | 0.08 Log10 | −1.88 Log10 | 7.62 log10 CFU/pair Lung | −0.62 Log10 | −2.58 Log10 | 6.92 log10 CFU/pair Lung | −1.26 Log10 | −3.21 Log10 | 6.28 log10 CFU/pair Lung |
| CCN(C)[C@@H]1C(O)=C(C(N)=O)C(=O)[C@@]2(O)C(O)=C3C(=O)c4c(O)cc(C5CCCN5)c(C(F)(F)F)c4C[C@H]3C[C@@H]12 (single isomer, unassigned) [Compound S4-14-5-A] | – | – | – | 1.58 Log10 | −0.38 Log10 | 9.11 log10 CFU/pair Lung | −0.03 Log10 | −1.99 Log10 | 7.51 log10 CFU/pair Lung | −0.85 Log10 | −2.81 Log10 | 6.69 log10 CFU/pair Lung |
| CCN(CC)[C@@H]1C(O)=C(C(N)=O)C(=O)[C@@]2(O)C(O)=C3C(=O)c4c(O)cc(C5CCCN5)c(C(F)(F)F)c4C[C@H]3C[C@@H]12 (single isomer, unassigned) [Compound S4-14-14-A] | – | – | – | 1.63 Log10 | −0.33 Log10 | 9.16 log10 CFU/pair Lung | −0.83 Log10 | −2.79 Log10 | 6.71 log10 CFU/pair Lung | −1.22 Log10 | −3.18 Log10 | 6.32 log10 CFU/pair Lung |
